Molecules are shown by their SMILES. The campaign covered roughly 150,000 compounds. About 540 (0.36%) showed an effect of 50% or more. The list shows a part of the results.

The test system of this assay is Plasmodium falciparum. Briefly: Primary screen in NF54 nanoGlo assay, in single point, at 2uM, 72h; a lower Z score goes with more inhibition. Format: functional, Erythrocyte. Conditions: timepoint 72 hour.
Usually % Inhibition stands for the drop in the measured response relative to a control, in per cent. `NC(=O)c1nsc2c(=O)n(CC(=O)Nc3ccccc3F)cnc12`: the “% Inhibition” value is -13% and the Z score worked out at 1.68.
As to `CC1CC1C(=O)NCCC(=O)NCCCOc1ccc(F)cc1` (centres undefined), the “% Inhibition” value was -15% and the Z score stood at 1.34.
Turning to `CN1CCn2nc(C(=O)N3C[C@H]4CCC[C@H]4C3)cc2S1(=O)=O`, the “% Inhibition” value is -2% and the Z score stood at 0.37.
As to `Cn1cnc(C(=O)NCC2CC(F)(F)C2)c1`, the “% Inhibition” value is recorded as -6% and the Z score worked out at 1.28.
As for `O=C(Nc1cccc2ncccc12)NC1CCN(Cc2cccs2)CC1`, the “% Inhibition” value is given as -3% and the Z score is recorded as 0.58.
Consider `O=C([C@@H]1COc2ccccc2O1)N(c1ccccc1)c1nc2ccccc2s1`, for which the “% Inhibition” value was -13% and the Z score amounted to 2.48.
As to `Cc1ccc(Cc2nc(N3CCN(CCC(C)C)CC3)c3c(C)nn(-c4ccccc4)c3n2)cc1`, the “% Inhibition” value is on record as -4% and the Z score is recorded as 0.42.
Regarding `C[C@@H](Cc1csc2ccccc12)NC(=O)c1ccccc1F`, the “% Inhibition” value is -4% and the Z score was 0.45.
In the case of `O=C(Nc1nc2ccccc2[nH]1)[C@@H]1COCCO1`, the “% Inhibition” value is on record as -8% and the Z score was found to be 0.76.
Regarding `CC(C)c1noc(-c2ccnc(NCC3(N(C)C)CCOCC3)c2)n1`, the “% Inhibition” value came out at 0% and the Z score is -0.01.
The corresponding values for `CN1CCN(c2ccccc2NC(=O)c2cc(=O)[nH]c3ccccc23)CC1` are -2% and 0.2.
As to `Cc1cc(C)n(CCN(C)Cc2ccc(OC(C)C)c(CO)c2)n1`, the “% Inhibition” value is 0% and the Z score is given as -0.02.
As to `COc1ccc(CN(C)C(=O)c2[nH]c(=O)[nH]c2C)cc1Cl`, the “% Inhibition” value is listed as -3% and the Z score stood at 0.52.
The corresponding values for `COCCc1noc(CN2CCCc3occc3C2)n1` are -37% and 4.3.
The like results for `COc1cc(Cl)ccc1CNC(=O)[C@H]1C[C@@H]1C(F)(F)F` were, in that order, 1% and -0.1.
For `CC(=O)NCCC(=O)N[C@H](CCC(=O)OCc1ccccc1)C(=O)OCc1ccccc1`, the “% Inhibition” value is reported as -1% and the Z score turned out to be 0.13.
The like results for `CN(C)CC1(NC(=O)c2ccc(Cl)cc2)CC1` were, in that order, -4% and 0.63.
For the compound `COc1cccc(C(=O)/N=C(\NCc2ccccn2)OCC(C)C)c1`, the “% Inhibition” value came to 5% and the Z score is -0.96.
In the case of `CCN1CCC[C@H]1CNC(=O)c1cnc(-c2cccnc2)nc1`, the “% Inhibition” value worked out at 10% and the Z score is recorded as -1.61.
Take `Cc1ccc(C(=O)Nc2cccnc2C2CC2)cn1`: the “% Inhibition” value is -5% and the Z score amounted to 0.76.
Consider `O=C(O)[C@H]1CCCN1C(=O)[C@@H]1CCCN1C(=O)[C@H](Cc1ccccc1)n1c(=O)[nH]c2ccccc2c1=O`, for which the “% Inhibition” value is -4% and the Z score turned out to be 0.57.
`CC1=NS(=O)(=O)NC(C)=C1CCC(=O)Nc1ccccc1Oc1ccccc1Cl`: the “% Inhibition” value is reported as -13% and the Z score was found to be 2.16.
The corresponding values for `O=C1C[C@]2(CCN(c3cc(-c4ccccc4)nc4ccccc34)C2)C(=O)N1` are -14% and 1.34.
Take `Cc1ccc(NC(=O)Cn2c(C)nc(-c3ccccn3)cc2=O)c(Br)c1`: the “% Inhibition” value was -4% and the Z score is reported as 0.49.
In the case of `CCOC1CC(CO)(NCc2ccon2)C1(C)C` (centres undefined), the “% Inhibition” value is listed as -4% and the Z score worked out at 0.58.
The corresponding values for `CC1(C)CCc2ccccc2[C@H]1NC(=O)c1cc2c(=O)[nH]cnc2cn1` are -1% and 0.09.
The like results for `CN(Cc1ccccc1)[C@@H]1COC2(C1)CN(C(=O)CC1CCCC1)C2` were, in that order, -15% and 2.35.
The corresponding values for `O=C(COc1nnc(-c2ccccc2)o1)c1ccc2c(c1)COC2` are -19% and 1.68.
Consider `Cn1nc(-c2ccncc2)cc1CNC(=O)c1ccc(Oc2ccccc2)cc1`, for which the “% Inhibition” value was -11% and the Z score is on record as 1.26.
The like results for `Cc1nc(-n2nc(C)c(CCC(=O)Nc3cccc(Cl)c3C)c2O)sc1C` were, in that order, -9% and 1.18.
`CCc1ccc(CN(C)Cc2ccncc2)o1`: the “% Inhibition” value is -11% and the Z score is 1.56.
Regarding `Cc1nc(N)ncc1C(=O)N(C)CCc1nc2ccccc2[nH]1`, the “% Inhibition” value is on record as -12% and the Z score is 1.93.
The corresponding values for `CC(C)[C@@H]1CN(C(=O)CCn2ccccc2=O)c2ccccc2N1` are -21% and 1.76.
The like results for `N#CC1(C(N)=O)C(c2ccccc2)CC(=O)CC1c1ccccc1` (centres undefined) were, in that order, -10% and 1.3.
The like results for `COc1ccc(CN(C(=O)c2ccoc2)c2ccncc2)cc1` were, in that order, -12% and 1.89.
As to `CC(=O)c1cnn(-c2cc(Oc3ccc(S(=O)(=O)c4ccccc4)cc3)nc(C)n2)c1C`, the “% Inhibition” value is given as -15% and the Z score is 1.9.
For the compound `Cc1cnn(CCC(=O)N2CC[C@H](O)C[C@@H]2C)c1`, the “% Inhibition” value is -7% and the Z score is recorded as 0.97.
The corresponding values for `CC(=O)N1CCN(C(=O)C2Cc3cc(C(F)(F)F)ccc3N3CCN(Cc4ccccc4)CC23)CC1` (centres undefined) are 9% and -1.12.
Turning to `O=C(c1nn2c(c1Cl)N[C@@H](c1cccs1)C[C@H]2C(F)(F)F)N1CCN(c2ccc(F)cc2)CC1`, the “% Inhibition” value is listed as -8% and the Z score was determined as 1.28.
For the compound `CCOc1ccc(Nc2c3ccccc3nc3ccccc23)cc1`, the “% Inhibition” value stood at 81% and the Z score was -10.53.
Take `Cc1ccc(OCC(=O)N2N=C3CCCCC3C2(O)C(F)(F)F)c(C)c1` (centres undefined): the “% Inhibition” value amounted to 4% and the Z score is -0.45.
In the case of `Cc1cc2oc(-c3cc4c(cc3C)C(C)(C)[C@H](C)C4(C)C)c(CC(=O)O)c2c(=O)[nH]1`, the “% Inhibition” value was 2% and the Z score was -0.26.
